# Source: the supplement of paper PMC3334620
# The full ranking holds about 33,000 sequences; the median of “E-score (-0.5 to 0.5)” is about -0.041, and the highest 2% start at about 0.37. This is one part of the list.
# Target: T1, Ecm22 (UniProt Q05958)
# T1 sequence: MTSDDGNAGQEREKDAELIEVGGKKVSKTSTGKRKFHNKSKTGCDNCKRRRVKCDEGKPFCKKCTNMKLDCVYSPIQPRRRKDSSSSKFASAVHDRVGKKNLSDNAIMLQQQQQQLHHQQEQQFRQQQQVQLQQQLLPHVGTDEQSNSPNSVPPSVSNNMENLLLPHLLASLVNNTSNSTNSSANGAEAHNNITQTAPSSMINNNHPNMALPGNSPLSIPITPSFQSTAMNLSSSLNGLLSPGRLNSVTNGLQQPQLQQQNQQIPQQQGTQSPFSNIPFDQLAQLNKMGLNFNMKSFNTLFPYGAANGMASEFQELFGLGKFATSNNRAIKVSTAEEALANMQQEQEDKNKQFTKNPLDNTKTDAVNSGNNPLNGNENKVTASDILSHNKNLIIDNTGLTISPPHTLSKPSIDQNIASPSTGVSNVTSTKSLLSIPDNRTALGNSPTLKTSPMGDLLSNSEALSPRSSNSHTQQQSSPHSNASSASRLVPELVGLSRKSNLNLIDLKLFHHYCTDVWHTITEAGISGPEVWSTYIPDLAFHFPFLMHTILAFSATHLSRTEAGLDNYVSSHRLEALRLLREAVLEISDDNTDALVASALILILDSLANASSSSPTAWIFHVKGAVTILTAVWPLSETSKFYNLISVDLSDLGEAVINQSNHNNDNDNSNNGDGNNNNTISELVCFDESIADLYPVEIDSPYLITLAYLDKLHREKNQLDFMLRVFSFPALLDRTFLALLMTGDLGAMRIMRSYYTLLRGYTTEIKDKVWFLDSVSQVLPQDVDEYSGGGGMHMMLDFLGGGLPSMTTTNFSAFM
# Experiment: PBM E-score (8-mer binding enrichment) (E-score (-0.5 to 0.5)); higher = stronger / more preferred TF binding; most listed sequences are background and not binding sites
# Conditions: protein concentration: 200 nM; construct: GST-full length
# Method in brief: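 Yeast transcription factors, full-length or as DNA-binding domains, were expressed with a GST tag using PURExpress in vitro transcription/translation. At about 100-200 nM they were applied to universal all-10-mer Agilent arrays, double-stranded by primer extension on fresh or once-stripped slides. Fluorescent anti-GST detected bound protein, and masliner normalised the scans. E-scores for ungapped eight-base words, pooled with reverse complements, came from the Universal PBM Analysis Suite.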
row,Sequence,PBM E-score
1,ATTATCGA,-0.117
2,ACGAAGCA,0.378
3,ATATCGAG,-0.0856
4,AATGCTCT,-0.102
5,CCCTCCTA,-0.202
6,GCAAATAC,0.0525
7,GATACAAA,0.163
8,CATGGTAG,-0.127
9,AAAGACGT,0.078
10,CAGCGGGG,-0.19
11,GTTTCCTA,0.0344
12,ACAGCAAC,-0.00316
13,ATCCTAAG,0.0699
14,AAAACGGA,0.0705
15,CGTATCAC,0.365
16,CATTGTAC,0.153
17,CTTACCCA,-0.141
18,TTCCAGAA,0.0403
19,CTGCAATA,0.0156
20,AGGATCAG,-0.202
21,GAGATACA,-0.0964
22,ACTTCAGC,-0.171

row,Sequence,PBM E-score
1,GGATTACC,-0.098
2,TGTGACAA,-0.11
3,GATAGGAA,0.0954
4,AAGCGTGG,-0.016
5,AGAACGCT,-0.0941
6,CCAATACG,0.177
7,GACACGGA,0.173
8,GACCTACA,-0.18
9,AAGAAATT,0.00396
10,ACACGCCG,0.131
11,AAGTACTG,-0.0128
12,GTGCCCGA,-0.265
13,AAACACAA,-0.045
14,CTTGCGTA,0.149
15,AGACGCGA,0.136
16,ACATCCCG,0.0243
17,AAAAGTAG,-0.248
18,AACGGGTA,0.293
19,CGGAGGAC,-0.0676
20,AGAGTGAG,-0.0279
21,CACCGACA,0.023
22,ACTTGTCA,-0.0799

row,Sequence,PBM E-score
1,AGCAAGAC,-0.107
2,ACGTTCCC,0.269
3,ATTAATTG,-0.107
4,CACACCTC,-0.211
5,CCAATAGC,-0.223
6,CTGGACAG,-0.15
7,ATGGGAAG,-0.246
8,CGTCCAAA,0.0222
9,AACTTGTG,-0.0165
10,AGAATCTA,-0.12
11,AAACGATA,0.435
12,ATTTTAGG,-0.0694
13,ATAGCGTA,0.15
14,CTTGCAAG,-0.0454
15,CTGACGAC,0.0704
16,TACCCTGA,-0.169
17,ATATGTTA,-0.00028
18,ACAGCATC,-0.0999
19,AATGAGGA,-0.192
20,GGGACAGA,-0.127
21,GATTACAA,0.0151
22,ATTGGTCG,0.0412

row,Sequence,PBM E-score
1,CGCGACGC,0.201
2,TCAAGCGA,0.219
3,CCGGCGCA,-0.0189
4,CAAGACAC,-0.157
5,CGTACTCA,0.3
6,GGCTTGAC,-0.148
7,ACAATGAA,-0.0575
8,CGCTGTGA,-0.136
9,AGCCGGTA,-0.0104
10,CCCCCCAG,-0.442
11,AGAGCTCA,-0.315
12,ACCTCATA,-0.0907
13,ATGTGTAG,0.0568
14,GCGATCGC,0.275
15,GGAGGTAA,-0.0735
16,CTCGTGTA,0.332
17,CAGGTGAC,-0.114
18,CGGTCCTC,0.151
19,CGAAACTA,0.141
20,GGTCATGA,-0.0265
21,AGTGCAAT,-0.0369
22,CCTCGCGC,0.215

row,Sequence,PBM E-score
1,CGATTTGC,0.0347
2,CCTAGACA,-0.213
3,ATACCTGA,-0.0656
4,CTCATAAA,-0.0162
5,ATCTATGA,-0.0161
6,AGGCCCCG,-0.201
7,ATCTAGAG,-0.146
8,AGGCAAGC,-0.0949
9,ATATACTG,0.0789
10,ATTTTTTC,0.0203
11,CCTGGTCG,0.166
12,CCAAGTAG,-0.114
13,CATGATAC,0.138
14,CGTCCCTA,-0.117
15,CTGGCTGC,-0.186
16,CGAGATTC,0.183
17,CGAATGAA,0.185
18,GAGACCCC,-0.121
19,ATTTCCTG,-0.145
20,GGACAGCA,-0.142
21,CTTTTGCC,-0.0531
22,AGGGGGGG,-0.334
